This passage reports GI50 results from patent US6962920B2, “Pyrimidine derivatives and methods of making and using these derivatives” (Duquesne University of the Holy Ghost, priority 1992, dated 2005).

For orientation: GI50 means the concentration that inhibits growth by half. A high value points to less potent growth inhibition.

The assay deals with NCI-H322M. In kind it is cell-based.
Setting [1] is: Table 29, Non-Small Cell Lung Cancer.

SMILES strings stand for the structures. Like-named read-outs stand apart in the source and are kept apart here.

Compound `Nc1nc(N)c2c(CNc3ccc(C(=O)N[C@@H](CCC(=O)O)C(=O)O)cc3)c[nH]c2n1` [Compound 9] registered a GI50 (Homo sapiens, Non-Small Cell Lung Cancer) above 100 µM.

Consider `COc1ccc(CCc2cn(Cc3ccccc3)c3nc(N)nc(C)c23)cc1` [Compound 113-118], for which, under setting [1], the GI50 is 74.7 µM.

As to `COc1ccccc1CCc1cn(Cc2ccccc2)c2nc(N)nc(C)c12` [Compound 113-148], it took 10.1 µM to inhibit growth under setting [1] by half (GI50).

Compound `COc1cc(CCc2c[nH]c3nc(N)nc(C)c23)cc(OC)c1OC` [Compound 113-154A] came in with a GI50 under setting [1] of 26.9 µM.
